Test results from paper PMC4336329 (PLoS ONE, 2015).
The campaign covered roughly 310,000 compounds. About 14,000 (4.5%) showed an effect of 50% or more. The effect is printed as a negative number. The list shows a part of the results.

Molecular target: human ether-à-go-go-related gene (hERG) potassium channel (human, UniProt Q12809)
Assay: primary screen, population patch clamp on CHO cells stably expressing hERG
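Also: peak tail current of the secondary pulse compared with the same well before compound.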

human ether-à-go-go-related gene (hERG) potassium channel, sequence (Q12809 whole entry, looked up): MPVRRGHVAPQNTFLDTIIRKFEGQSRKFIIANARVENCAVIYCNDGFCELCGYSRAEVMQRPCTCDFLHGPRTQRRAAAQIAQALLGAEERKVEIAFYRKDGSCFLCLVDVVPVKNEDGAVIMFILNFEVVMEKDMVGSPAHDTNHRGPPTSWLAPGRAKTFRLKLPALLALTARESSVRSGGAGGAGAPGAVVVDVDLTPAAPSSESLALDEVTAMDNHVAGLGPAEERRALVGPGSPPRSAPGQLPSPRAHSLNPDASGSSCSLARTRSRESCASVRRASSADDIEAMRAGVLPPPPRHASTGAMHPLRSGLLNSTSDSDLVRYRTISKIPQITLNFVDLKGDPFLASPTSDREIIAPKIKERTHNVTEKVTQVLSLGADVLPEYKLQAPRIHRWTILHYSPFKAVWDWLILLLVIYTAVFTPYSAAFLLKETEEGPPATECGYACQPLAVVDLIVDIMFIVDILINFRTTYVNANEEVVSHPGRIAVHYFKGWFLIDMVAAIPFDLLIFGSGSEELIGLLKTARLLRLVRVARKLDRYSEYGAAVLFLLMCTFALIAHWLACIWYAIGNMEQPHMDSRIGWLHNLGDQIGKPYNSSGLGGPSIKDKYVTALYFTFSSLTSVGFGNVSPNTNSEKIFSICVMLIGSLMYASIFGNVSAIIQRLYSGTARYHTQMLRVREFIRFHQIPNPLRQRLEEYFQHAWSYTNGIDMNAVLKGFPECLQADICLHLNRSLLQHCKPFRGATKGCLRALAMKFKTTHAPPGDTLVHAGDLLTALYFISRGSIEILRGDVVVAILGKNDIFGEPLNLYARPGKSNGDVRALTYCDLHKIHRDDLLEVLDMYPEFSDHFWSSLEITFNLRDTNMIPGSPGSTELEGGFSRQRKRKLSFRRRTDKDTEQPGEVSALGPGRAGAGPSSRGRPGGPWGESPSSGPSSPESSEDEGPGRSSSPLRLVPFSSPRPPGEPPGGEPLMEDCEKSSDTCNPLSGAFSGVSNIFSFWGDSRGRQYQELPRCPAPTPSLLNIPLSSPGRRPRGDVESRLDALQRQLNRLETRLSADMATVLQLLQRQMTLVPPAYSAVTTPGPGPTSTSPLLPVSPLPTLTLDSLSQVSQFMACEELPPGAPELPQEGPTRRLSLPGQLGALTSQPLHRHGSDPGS

| Structure (SMILES) | hERG current change (%, negative = inhibition) at 10uM |
| --- | --- |
| O=C(NNC(=O)c1ccc(-c2ccccc2)cc1)Nc1ccccc1F | 9.1% |
| O=C(Nc1nc2ccccc2c(=O)[nH]1)c1ccccc1SCc1ccccc1 | 26.7% |
| COc1ccc2c(C)cc(N3CCCCCC3)nc2c1.O=C(O)C(=O)O | -82% |
| Cc1ccccc1OCC(=O)NNC(=O)Cc1ccc(S(=O)(=O)N2CCOCC2)s1 | 0.216% |
| COc1cccc(C2CCCCN2Cc2nc(-c3ccc(C)o3)oc2C)c1 (centres unmarked) | -12.5% |
| O=C(CCN1C(=O)C2C3C=CC(C3)C2C1=O)N1CCCCC1 (centres unmarked) | -4.12% |
| CN1CC(=O)N(CC(=O)N2N=C(c3ccc(Cl)cc3)CC2c2ccco2)C1=O (centres unmarked) | -11.6% |
| Cc1nc2ccc(NC(=O)CCS(=O)(=O)c3ccc(Cl)cc3)cc2s1 | -5.74% |
| COc1cc(C(=O)Nc2cc3c4c(c2)CC(=O)N4CCC3)cc(OC)c1OC | 3.93% |
| COc1ccc(C2NC(=O)c3ccccc3O2)cc1 (centres unmarked) | -4.49% |
| CC(=O)c1cccc(NC(=O)N2CCCC2C(=O)Nc2ccc3c(c2)OCO3)c1 (centres unmarked) | 15.9% |
| CCN(CC(=O)Nc1ccc(NC(C)=O)cc1)C(=O)c1cc(CN2C(=O)c3ccccc3C2=O)ccc1OC | 11.1% |
| COc1ccc(CC(=O)Nc2cccc(-c3ccc4nnc(C)n4n3)c2)cc1OC | -0.118% |
| CN1C(=O)N(C)C2C1N(C)S(=O)(=O)N2C (centres unmarked) | 18.5% |
| NC(=O)/C(=C\c1ccccc1)NC(=O)c1ccc(NC(=O)c2ccccc2)cc1 | 10.9% |
| O=C(c1ccccc1)c1cn[nH]c1-c1ccccc1O | 5.65% |
| Cc1cc(C)n2nc(NCc3cccc(Br)c3)nc2n1 | -70% |
| COc1ccc(S(=O)(=O)N2CCN(Cc3cccc([N+](=O)[O-])c3)CC2)cc1 | -87.4% |
| COCCCNC(=O)CCn1c(=O)c2ccccc2n(CC(=O)Nc2cc(Cl)ccc2C)c1=O | -17.6% |
| O=C(c1cccc(Br)c1)c1conc1C(=O)c1ccco1 | 2.57% |
| COc1ccccc1C(=O)N/N=C1/NC(=O)CC(C(=O)Nc2ccccc2)S1 (centres unmarked) | 9.35% |
| Cc1cccc(Oc2ccc(N)cc2)c1 | -12% |

| Structure (SMILES) | hERG current change (%, negative = inhibition) at 10uM |
| --- | --- |
| CNC(=S)Nc1ccc([N+](=O)[O-])cc1C | 25.3% |
| CCN(CC(=O)Nc1c(F)cccc1F)C(=O)c1ccccn1 | 1.1% |
| COc1ccc(N2CCN(C3CCCCC3NS(=O)(=O)c3ccc(Cl)cc3)CC2)cc1 (centres unmarked) | 5.87% |
| C/C(=N\NC(=O)CCC(=O)N/N=C(\C)c1ccc(C)o1)c1ccc(C)o1 | -11% |
| Cc1ccc(C)c(CN2C(=O)COc3ccc(C(=O)c4ccccc4C(=O)O)cc32)c1 | 5.35% |
| O=C(Nc1ccccc1-c1nnn(CC(=O)N2CCc3ccccc3C2)n1)C1CCC1 | -52.8% |
| Cc1ccc(C)c(N2CCN(S(=O)(=O)c3ccc(-c4ccc(=O)[nH]n4)o3)CC2)c1 | 12.8% |
| O=C(Nc1ccc([N+](=O)[O-])cc1)OCCc1ccccn1 | 8.01% |
| O=C(CN1C(=O)c2cccc3cccc1c23)NC1CCCCC1 | 6.41% |
| COC(=O)c1cccc(COC(=O)c2cc3ccccc3oc2=O)c1 | -16.1% |
| CCOC(=O)c1ccc(S(=O)(=O)Nc2cc(C(C)(C)C)no2)cc1 | 5.32% |
| O=C(Cn1nc(-c2ccccc2Cl)ccc1=O)Nc1ccc(Br)cc1 | -3.77% |
| O=C(Cn1cc(C(F)(F)F)ccc1=O)N/N=C/c1cccc(Cl)c1 | 10.5% |
| O=C(CSc1nnc(-c2cnccn2)n1Cc1ccco1)c1ccc2ccccc2c1 | -15.4% |
| O=C(CSc1ccc2nnc(-c3ccccn3)n2n1)Nc1ccccc1F | -14.7% |
| COc1ccccc1CNC(=O)[C@@H]1CCCN1S(=O)(=O)c1ccccc1F | 23.3% |
| O=C(NC1(C(F)(F)F)NC(=O)N(c2ccc(F)c(Cl)c2)C1=O)c1ccncc1 (centres unmarked) | -1.23% |
| CC(=O)Nc1c(-c2ccc(F)cc2)nc2ccccn12 | -11.6% |
| OCC[C@H]1C[C@@H](O)[C@H](O)[C@]2(Cc3ccccc3O2)O1 | -2.1% |
| Cc1ccc(S(=O)(=O)CC(=O)Nc2nc(-c3ccccc3)cs2)cc1 | -38% |
| CCOC(=O)c1c(NC(=O)CSc2ncccn2)sc2c1CC(C)(C)NC2(C)C | -55.9% |
| CC(C)Sc1nnc(NC(=O)c2ccc3c(c2)OCO3)s1 | -25.9% |

| Structure (SMILES) | hERG current change (%, negative = inhibition) at 10uM |
| --- | --- |
| CCC(C)NC(=O)c1cccc(C)c1 (centres unmarked) | -6.81% |
| COC(=O)C/C=C/[C@@H](C)[C@@H](/C=N/OCC[C@@H]1C=C[C@H](OC(C)=O)[C@@H](COC(C)=O)O1)NS(=O)(=O)c1ccc(C)cc1 | -7.77% |
| CCn1ncc(Cl)c1C(=O)NC(C)c1ccccc1 (centres unmarked) | -8.21% |
| Cl.Nc1nc2ccccc2n1C(=O)c1cccs1 | 16.4% |
| CC(=O)NC(=S)Nc1ccc2oc(=O)ccc2c1 | 16.4% |
| O=C(OC1CCOC1=O)c1cc(-c2ccccc2)nc2ccccc12 (centres unmarked) | -2.69% |
| O=C(CN1C(=O)NC2(CCCC2)C1=O)OCc1ccccc1F | 6.83% |
| Cc1cccc2sc(NNC(=O)c3ccc(S(=O)(=O)N4CCCC(C)C4)cc3)nc12 (centres unmarked) | 2.91% |
| CN1CCN(C(=O)C2CCCCC2C(=O)O)CC1 (centres unmarked) | 0.612% |
| CSCCC(NC(=O)COc1ccccc1)C(=O)N1CCCCCC1 (centres unmarked) | -20.7% |
| COc1cccc(N2C(=NC(=O)C3CCCCC3)SC3CS(=O)(=O)CC32)c1 (centres unmarked) | -0.837% |
| Cc1ccc(OCC(=O)N(Cc2cccs2)C2CCS(=O)(=O)C2)cc1 (centres unmarked) | -8.3% |
| CN(C(=O)COC(=O)c1c2c(nc3ccccc13)CCCC2)c1c(N)n(Cc2ccccc2)c(=O)[nH]c1=O | -0.276% |
| COc1ccccc1/C=C(\NC(=O)c1ccc(OC)c(OC)c1)C(=O)Nc1ccc([N+](=O)[O-])cc1 | 14.3% |
| CCN(CC)c1ccc(/C=C2\C(=O)c3ccc(C(=O)O)cc3C2=O)cc1 | 3.4% |
| C/C(=N\Nc1ccc([N+](=O)[O-])cc1)c1ccc(N)cc1 | -15.2% |
| COc1cccc(-n2c(SCC(=O)c3c[nH]c4ccccc34)nc3ccccc3c2=O)c1 | 7.77% |
| Cc1ccc(NC(=O)c2c(C)noc2C)cc1 | -10.9% |
| Cc1c(N/C(=N/S(=O)(=O)c2ccc(Cl)cc2)c2ccccc2)c(=O)n(-c2ccccc2)n1C | -20.6% |
| O=C(COC(=O)C1(c2ccccc2F)CCCC1)N1CCc2ccccc21 | 3.52% |
| CCc1ccc(N2C(=O)CN(Cc3sccc3C)C2=S)cc1 | -0.759% |
| COc1ccc(NC(=O)CSc2[nH]c(=O)cc(C)c2C#N)cc1OC | 8.53% |

| Structure (SMILES) | hERG current change (%, negative = inhibition) at 10uM |
| --- | --- |
| Cc1cccc(C)c1OCC(=O)OCC(=O)Nc1ccc(Cl)cn1 | 6.45% |
| c1ccc(-c2csc3ncn4cnnc4c23)cc1 | -8.49% |
| CSc1ccc(/C=C/C(=O)N2CCCN(C)CC2)cc1.Cl | -26.6% |
| CC1CN(c2oc(-c3ccccc3Cl)nc2C#N)CC(C)O1 (centres unmarked) | 2.37% |
| COc1ccc(C(C)=O)cc1CSc1nnc(Nc2ccc(C)cc2)s1 | 15% |
| CC(NC(=S)Nc1ccccc1)C(c1cccs1)N1CCOCC1 (centres unmarked) | -4.86% |
| CCCCn1c(SCC(=O)N(CC)C2CCS(=O)(=O)C2)nc2cc(S(N)(=O)=O)ccc21 (centres unmarked) | -5.49% |
| O=C(CSc1nnc(CNC(=O)c2ccccc2)o1)NCc1ccc2c(c1)OCO2 | 1.73% |
| N#C/C(=N\Nc1cc(Cl)cc(Cl)c1)c1nnc2n1CCCCC2 | -16.2% |
| Cl.NCCCC(=O)N1c2ccccc2Sc2ccc(Cl)cc21 | -1.86% |
| CCN1CCN(C(CNS(=O)(=O)c2ccc(C)cc2)c2cccnc2)CC1 (centres unmarked) | -35.9% |
| C[C@H](CCC(=O)O)[C@H]1CC[C@H]2[C@@H]3C(=O)C[C@@H]4CC(=O)CC[C@]4(C)[C@H]3CC(=O)[C@]12C | 7.92% |
| Cc1cc(NC(=O)c2ccccc2)n(-c2ccccc2)n1 | 30.8% |
| Cc1ccc(CCNC(=O)C2CCN(S(=O)(=O)c3ccc4c(c3)CCC(=O)N4)CC2)cc1 | 3.09% |
| Cn1cc(CN2CCCC(C(=O)c3nccn3C)C2)c(-c2cccc(Cl)c2)n1 (centres unmarked) | -31.1% |
| S=c1[nH]nc(-c2ccc(Br)cc2)n1Cc1ccccc1 | 9.48% |
| O=C1CCC([N+](=O)[O-])C(c2ccc(Cl)cc2Cl)N1 (centres unmarked) | 2.4% |
| COc1cc(C)c(S(=O)(=O)n2ccc(C)n2)cc1C | 4.35% |
| COc1ccccc1N1CCN(Cc2ccc(C(=O)O)cc2)CC1 | 14.4% |
| O=S1(=O)c2cccc3cccc(c23)N1Cc1nnc(-c2ccccc2Br)o1 | -9.83% |
